# From the supplement of paper PMC8728848
# The list shows a part of the results.
# B1: B1567 (Bifidobacterium sp) (protein)
# chain: MKFTTAKKAVALTGAVAMLVSVAACGSDSGKSSQPAQDSDVKEITVWAWEPSLTQVAKDFEKETGIKVDLKNVGTNTKEYTQLDNAIEAGSGAPDVAQVEYYAVPQYAIKGNLLDITDKTSGYKDFYTPGPWASVQFAGKVYGLPMDSGPMAFFYNKEVFDKAGVDAEQIKTWDQYYDAAKKIHALGDNYYITSDTGDAGFFDSMTWLAGAKPFQTSSDGSEVTVNLTEDKGVKTFTDFWQKLLDEGLLDTKTAGWSEDWFKGMVDGTIASLFTGAWMPANLANSAADGAGKWRVTQMPTADGSTTNSENGGSSLAVLASTKKADAAYQFIEYANHGAGVATRVAGGAFPADKASLEKDSFKNATTVKNADGQDVDYFGGQKYNEVLAQAAENVSSGYQFLPFEVKARTIFGDYFGKSYTGDQKLSDGVAAWQKALQDYGKDQGFTVK
# Tests used:
# Assay in all cases: glycan array binding signal (z-score within array); higher = stronger binding
# Settings in all cases: glycan notation: IUPAC condensed, linker removed
# [1] = target: Gal(b1-4)GlcNAc(b1-3)Gal(b1-4)GlcNAc(b1-3)Gal(b1-4)GlcNAc(b1-3)Gal(b1-4)GlcNAc(b1-2)Man(a1-3)[Gal(b1-4)GlcNAc(b1-3)Gal(b1-4)GlcNAc(b1-3)Gal(b1-4)GlcNAc(b1-3)Gal(b1-4)GlcNAc(b1-2)Man(a1-6)]Man(b1-4)GlcNAc(b1-4)[Fuc(a1-6)]GlcNAc
# Outline: (§1)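 Negative Z-scores can be read as non-binding. The Z-score is calculated within each array and then averaged across arrays of one protein sequence at different concentrations or buffers and across linkers. Arrays, 3228 in all, were curated from the Consortium for Functional Glycomics database and kept only where the protein sequence was available.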
# [2] = target: Gal(b1-4)GlcNAc(b1-3)Gal(b1-4)GlcNAc(b1-3)Gal(b1-4)GlcNAc(b1-3)Gal(b1-4)GlcNAc(b1-2)[Gal(b1-4)GlcNAc(b1-3)Gal(b1-4)GlcNAc(b1-3)Gal(b1-4)GlcNAc(b1-3)Gal(b1-4)GlcNAc(b1-6)]Man(a1-6)[Gal(b1-4)GlcNAc(b1-3)Gal(b1-4)GlcNAc(b1-3)Gal(b1-4)GlcNAc(b1-3)Gal(b1-4)GlcNAc(b1-2)Man(a1-3)]Man(b1-4)GlcNAc(b1-4)[Fuc(a1-6)]GlcNAc
# Outline: as §1
# [3] = target: Gal(b1-4)GlcNAc(b1-3)Gal(b1-4)GlcNAc(b1-3)Gal(b1-4)GlcNAc(b1-3)Gal(b1-4)GlcNAc(b1-3)Gal(b1-4)GlcNAc(b1-2)Man(a1-3)[Gal(b1-4)GlcNAc(b1-3)Gal(b1-4)GlcNAc(b1-3)Gal(b1-4)GlcNAc(b1-3)Gal(b1-4)GlcNAc(b1-3)Gal(b1-4)GlcNAc(b1-2)Man(a1-6)]Man(b1-4)GlcNAc(b1-4)GlcNAc
# Outline: as §1
# [4] = target: Gal(b1-4)GlcNAc(b1-3)Gal(b1-4)GlcNAc(b1-3)Gal(b1-4)GlcNAc(b1-3)Gal(b1-4)GlcNAc(b1-3)Gal(b1-4)GlcNAc(b1-2)Man(a1-3)[Gal(b1-4)GlcNAc(b1-3)Gal(b1-4)GlcNAc(b1-3)Gal(b1-4)GlcNAc(b1-3)Gal(b1-4)GlcNAc(b1-3)Gal(b1-4)GlcNAc(b1-2)Man(a1-6)]Man(b1-4)GlcNAc(b1-4)[Fuc(a1-6)]GlcNAc
# Outline: as §1
# [5] = target: Gal(b1-4)GlcNAc(b1-3)Gal(b1-4)GlcNAc(b1-3)Gal(b1-4)GlcNAc(b1-3)Gal(b1-4)GlcNAc(b1-3)Gal(b1-4)GlcNAc(b1-2)[Gal(b1-4)GlcNAc(b1-3)Gal(b1-4)GlcNAc(b1-3)Gal(b1-4)GlcNAc(b1-3)Gal(b1-4)GlcNAc(b1-3)Gal(b1-4)GlcNAc(b1-6)]Man(a1-6)[Gal(b1-4)GlcNAc(b1-3)Gal(b1-4)GlcNAc(b1-3)Gal(b1-4)GlcNAc(b1-3)Gal(b1-4)GlcNAc(b1-3)Gal(b1-4)GlcNAc(b1-2)Man(a1-3)]Man(b1-4)GlcNAc(b1-4)[Fuc(a1-6)]GlcNAc
# Outline: as §1
# [6] = target: Gal(b1-4)GlcNAc(b1-3)Gal(b1-4)GlcNAc(b1-3)Gal(b1-4)GlcNAc(b1-3)Gal(b1-4)GlcNAc(b1-3)Gal(b1-4)GlcNAc(b1-3)Gal(b1-4)GlcNAc(b1-2)Man(a1-3)[Gal(b1-4)GlcNAc(b1-3)Gal(b1-4)GlcNAc(b1-3)Gal(b1-4)GlcNAc(b1-3)Gal(b1-4)GlcNAc(b1-3)Gal(b1-4)GlcNAc(b1-3)Gal(b1-4)GlcNAc(b1-2)Man(a1-6)]Man(b1-4)GlcNAc(b1-4)GlcNAc
# Outline: as §1
# [7] = target: Gal(b1-4)GlcNAc(b1-3)Gal(b1-4)GlcNAc(b1-3)GalNAc
# Outline: as §1
# [8] = target: Gal(b1-4)GlcNAc(b1-3)Gal(b1-4)GlcNAc(b1-3)[Gal(b1-4)GlcNAc(b1-3)Gal(b1-4)GlcNAc(b1-6)]GalNAc
# Outline: as §1
# [9] = target: Gal(b1-4)GlcNAc(b1-3)Gal(b1-4)GlcNAc(b1-6)[Gal(b1-3)]GalNAc
# Outline: as §1
# [10] = target: Gal(b1-4)GlcNAc(b1-3)Gal(b1-4)[Fuc(a1-3)]GlcNAc(b1-3)Gal(b1-4)[Fuc(a1-3)]GlcNAc
# Outline: as §1
# [11] = target: Gal(b1-4)GlcNAc(b1-3)GalNAc
# Outline: as §1
# [12] = target: Gal(b1-4)GlcNAc(b1-3)[Fuc(a1-3)GlcNAc(b1-6)]Gal(b1-4)Glc
# Outline: as §1
# [13] = target: Gal(b1-4)GlcNAc(b1-3)[Gal(b1-4)GlcNAc(b1-6)]Gal(b1-4)GlcNAc
# Outline: as §1
# [14] = target: Gal(b1-4)GlcNAc(b1-3)[GlcNAc(b1-6)]Gal(b1-4)GlcNAc
# Outline: as §1
# [15] = target: Gal(b1-4)GlcNAc(b1-6)Gal(b1-4)GlcNAc
# Outline: as §1
# [16] = target: Gal(b1-4)GlcNAc(b1-6)GalNAc
# Outline: as §1
# [17] = target: Gal(b1-4)GlcNAc(b1-6)[Gal(b1-3)]GalNAc
# Outline: as §1
# [18] = target: Gal(b1-4)GlcNAc(b1-6)[Gal(b1-4)GlcNAc(b1-3)]GalNAc
# Outline: as §1
# Gal(b1-4)GlcNAc6P = target: Gal(b1-4)GlcNAc6P
# Outline: as §1
# Gal(b1-6)Gal = target: Gal(b1-6)Gal
# Outline: as §1
# Gal3S(b1-3)GalNAc = target: Gal3S(b1-3)GalNAc
# Outline: as §1
# Gal3S(b1-3)GlcNAc = target: Gal3S(b1-3)GlcNAc
# Outline: as §1
# [19] = target: Gal3S(b1-3)[Fuc(a1-4)]GlcNAc
# Outline: as §1
# Gal3S(b1-4)Glc = target: Gal3S(b1-4)Glc
# Outline: as §1
# Gal3S(b1-4)Glc6S = target: Gal3S(b1-4)Glc6S
# Outline: as §1
# Gal3S(b1-4)GlcNAc = target: Gal3S(b1-4)GlcNAc
# Outline: as §1
# [20] = target: Gal3S(b1-4)[Fuc(a1-3)]Glc6S
# Outline: as §1
# [21] = target: Gal3S(b1-4)[Fuc(a1-3)]GlcNAc
# Outline: as §1
# [22] = target: Gal3S(b1-4)[Fuc(a1-3)]GlcNAc6S
# Outline: as §1
# Gal3S4S(b1-4)GlcNAc = target: Gal3S4S(b1-4)GlcNAc
# Outline: as §1
# Gal3S6S(b1-4)GlcNAc = target: Gal3S6S(b1-4)GlcNAc
# Outline: as §1
# Gal3S6S(b1-4)GlcNAc6S = target: Gal3S6S(b1-4)GlcNAc6S
# Outline: as §1
# Gal4S(b1-4)GlcNAc = target: Gal4S(b1-4)GlcNAc
# Outline: as §1
# Gal4S6S(b1-4)GlcNAc = target: Gal4S6S(b1-4)GlcNAc
# Outline: as §1
# Gal6P(b1-4)GlcNAc = target: Gal6P(b1-4)GlcNAc
# Outline: as §1
# Gal6S(b1-3)GlcNAc = target: Gal6S(b1-3)GlcNAc
# Outline: as §1
# Gal6S(b1-3)GlcNAc6S = target: Gal6S(b1-3)GlcNAc6S
# Outline: as §1
# Gal6S(b1-4)Glc = target: Gal6S(b1-4)Glc
# Outline: as §1
binder,measurement,setting,value
B1,glycan array binding signal (z-score),[1],0.252
same,glycan array binding signal (z-score),[2],0.348
same,glycan array binding signal (z-score),[3],0.252
same,glycan array binding signal (z-score),[4],0.106
same,glycan array binding signal (z-score),[5],0.223
same,glycan array binding signal (z-score),[6],1.66
same,glycan array binding signal (z-score),[7],-0.089
same,glycan array binding signal (z-score),[8],-0.057
same,glycan array binding signal (z-score),[9],-0.047
same,glycan array binding signal (z-score),[10],1.8
same,glycan array binding signal (z-score),[11],-0.131
same,glycan array binding signal (z-score),[12],-0.116
same,glycan array binding signal (z-score),[13],-0.165
same,glycan array binding signal (z-score),[14],-0.069
same,glycan array binding signal (z-score),[15],-0.131
same,glycan array binding signal (z-score),[16],-0.047
same,glycan array binding signal (z-score),[17],-0.103
same,glycan array binding signal (z-score),[18],-0.086
same,glycan array binding signal (z-score),Gal(b1-4)GlcNAc6P,-0.051
same,glycan array binding signal (z-score),Gal(b1-6)Gal,11
same,glycan array binding signal (z-score),Gal3S(b1-3)GalNAc,-0.155
same,glycan array binding signal (z-score),Gal3S(b1-3)GlcNAc,-0.098
same,glycan array binding signal (z-score),[19],-0.028
same,glycan array binding signal (z-score),Gal3S(b1-4)Glc,-0.135
same,glycan array binding signal (z-score),Gal3S(b1-4)Glc6S,-0.095
same,glycan array binding signal (z-score),Gal3S(b1-4)GlcNAc,-0.061
same,glycan array binding signal (z-score),[20],-0.102
same,glycan array binding signal (z-score),[21],-0.115
same,glycan array binding signal (z-score),[22],-0.109
same,glycan array binding signal (z-score),Gal3S4S(b1-4)GlcNAc,-0.102
same,glycan array binding signal (z-score),Gal3S6S(b1-4)GlcNAc,-0.134
same,glycan array binding signal (z-score),Gal3S6S(b1-4)GlcNAc6S,-0.052
same,glycan array binding signal (z-score),Gal4S(b1-4)GlcNAc,-0.071
same,glycan array binding signal (z-score),Gal4S6S(b1-4)GlcNAc,-0.166
same,glycan array binding signal (z-score),Gal6P(b1-4)GlcNAc,-0.049
same,glycan array binding signal (z-score),Gal6S(b1-3)GlcNAc,-0.09
same,glycan array binding signal (z-score),Gal6S(b1-3)GlcNAc6S,-0.094
same,glycan array binding signal (z-score),Gal6S(b1-4)Glc,-0.097
